We go through 54 compounds from PubChem BioAssay AID1346428 (National Center for Advancing Translational Sciences (NCATS), 2018).

About 1,200 (2.5%) of roughly 48,000 compounds were called active. Roughly 2% stayed inconclusive and do not appear here.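 How the source made its calls: active means activation of at least 60% and not above a set upper limit (about 1 call in 100 departs from these limits); inconclusive means activation of 40% to 60%, or above that upper limit; inactive means activation under 40%.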 The list shows a part of the results.

The assay deals with Probable G-protein coupled receptor 32 (Homo sapiens) (UniProt O75388). As to the kind of experiment: qHTS for Agonists of Human Resolvin D1 Receptor DRV1. To be noted: CHO-K1 GPR32 beta-arrestin PathHunter luminescence, 90 min; at 76.9 µM; hits give high values; zero percent set by DMSO-only wells. A digest of the protocol: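 Using DMSO wells as EC0, agonist-induced signal was taken as chemiluminescence from beta-Gal reconstituted upon beta-arrestin recruitment to GPR32 in CHO-K1 cells after 90 min compound treatment.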
Chain of UniProt O75388 (O75388 whole entry, looked up): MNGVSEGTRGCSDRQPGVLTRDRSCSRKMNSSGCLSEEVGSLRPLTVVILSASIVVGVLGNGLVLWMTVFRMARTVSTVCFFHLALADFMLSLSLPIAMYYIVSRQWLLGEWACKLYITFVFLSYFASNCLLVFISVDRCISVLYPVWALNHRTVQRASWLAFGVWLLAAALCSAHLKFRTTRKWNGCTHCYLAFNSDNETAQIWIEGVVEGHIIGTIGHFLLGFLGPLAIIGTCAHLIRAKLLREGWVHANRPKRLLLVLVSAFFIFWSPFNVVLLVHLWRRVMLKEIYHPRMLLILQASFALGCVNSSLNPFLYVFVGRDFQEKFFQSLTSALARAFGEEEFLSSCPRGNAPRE
Background: Quantitative high-throughput screening tests each substance at several concentrations.
For `CCOc1cccc(C(=O)N(Cc2ccc(C(C)C)cc2)C2CCS(=O)(=O)C2)c1` (centres undefined), the activation is inactive: -19.1%.
`Cc1ccc(C)c(OCCCC(C)(C)C(=O)O)c1`: the activation is inactive: 2.23%.
For `COc1ccccc1C(=O)Nc1ccccc1OCc1cc(=O)n2cc(C)sc2n1`, the activation is inactive: 6.6%.
For `Cc1ccc(NC(=O)C2CCN(C(=O)c3sc4nc[nH]c(=O)c4c3C)CC2)cc1F`, the activation is inactive: -9.89%.
Then `Cc1ccc(-c2nn(CCC(=O)Nc3ccc(OC(F)(F)F)cc3)c(=O)c3ccccc23)cc1`, with inactive: -2.23%; and `Cc1ccccc1NC(=O)c1c(C)oc2ccc(O)c(CN(C)Cc3ccccc3)c12`, with inactive: -18.3%; and `Cc1ccc(-c2noc(-c3ccccc3OCC(=O)Nc3ccccc3[N+](=O)[O-])n2)cc1`, with inactive: 4.93%.
In the case of `CC(C)Oc1ccc(C(=O)NCCc2csc(-c3cccc(F)c3)n2)cc1`, the activation was inactive: 27.5%.
In the case of `CCN1C(=O)C(Cc2nc3ccccc3c(=O)n2-c2cccc(C)c2)c2ccccc21` (centres undefined) it was inactive: -17.7%; in that of `CC1=C(C(=O)O)N2C(=O)[C@@H](NC(=O)C(N)C3=CCC=CC3)[C@H]2SC1` (some centres undefined), inactive: -9.06%.
As for `COc1cccc(NC(=O)Cn2c(=O)n(-c3ccc(C)cc3)c(=O)c3ccccc32)c1`, the activation is inactive: -1.41%.
Take `CCCC(=O)N1c2nc(-c3ccco3)nn2C2(CCCCC2)[C@@H]2CCCC[C@@H]21`: the activation was inactive: -30.6%.
Consider `O=C(Nc1ncc(Cc2ccc(F)cc2)s1)c1ccc2c(c1)CC(c1ccccc1)OC2=O` (centres undefined), for which the activation is inactive: 17.3%.
Turning to `CCCCCn1c(CCCNC(=O)c2ccccc2)nc2ccccc21`, the activation is inactive: 47.3%.
Regarding `Cc1nn(C)c2c1c(C(F)(F)F)cc(=O)n2CC(=O)Nc1ccc(F)cc1F`, the activation was inactive: -5.49%.
For `Cc1nnc(N2CCC(C(=O)NC3CCC(C)CC3)CC2)c2nn(-c3ccc(Cl)cc3)c(C)c12` (centres undefined), the activation is inactive: -4.23%.
In the case of `Cc1ccccc1NC(=O)CSc1nccn1C` it was inactive: 16.4%.
Take `Cc1cccc(N(C)C(=O)Cn2cnc3nc4c(cc3c2=O)CCCC4)c1`: the activation is inactive: -5.78%.
Consider `Cc1ccc(-n2ncc3c(Nc4ccc(Oc5ccccc5)cc4)ncnc32)cc1`, for which the activation was inactive: 19.1%.
Then `CCc1ccccc1NC(=O)N1CCN(Cc2nc3ccc(C)cc3o2)CC1`, with inactive: -19.4%.
Turning to `COCCn1c(C)cc(O)c(C(c2ccccc2)N2CCCCC2)c1=O` (centres undefined), the activation is inactive: 26.4%.
In the case of `Cc1cccc(N2CCN(C(=O)c3cc4ccc5cccnc5c4[nH]3)CC2)c1C`, the activation is inactive: -18.2%.
In the case of `CC(C)Cc1nn2c(=O)cc(COC(=O)c3cccc(NC(=O)c4ccccc4)c3)nc2s1`, the activation was inactive: -8.8%.
In the case of `COc1ccc(NC(=O)c2cc(C3CC3)nc3c2c(C)nn3-c2ccccc2)c(OC)c1` it was inactive: -9.26%; in that of `CCCN(CCC)CCNC(=O)c1cc2c(=O)oc3ccc(C)cc3c2s1`, inactive: -1.42%; in that of `Cc1c(C(=O)Nc2cccc(C(F)(F)F)c2)sc2nc3n(c(=O)c12)CCC3`, inactive: 12.8%.
Consider `Cc1cccc(Cn2cc3c(=O)n(CC(=O)Nc4cccc(C)c4C)nc-3c3cc(F)ccc32)c1`, for which the activation is inactive: -15.3%.
Then `CCOCCCNC(=O)Cn1ncc2c([nH]c3ccccc32)c1=O`, with inactive: -0.971%; and `CCOc1ccc(/C=C/c2nc(C#N)c(NCc3ccc(OC)cc3)o2)cc1`, with inactive: 6.15%.
As to `Cc1noc(C)c1S(=O)(=O)N(CC(=O)Nc1ccc(C(F)(F)F)cc1)c1ccc(C(C)C)cc1`, the activation was inactive: 10.2%.
For `Clc1ccccc1CNCCCSc1nnnn1-c1ccccc1`, the activation is inactive: -14.3%.
In the case of `CCN(CC)S(=O)(=O)c1ccc2c(c1)N(CC(=O)Nc1cccc(C)c1C)C(=O)C1CCCN21` (centres undefined), the activation was inactive: -12.8%.
Take `CCOC(=O)N1CCN(Cc2nc3cc(NC(=O)CC(C)C)ccc3n2C(C)C)CC1`: the activation is inactive: -8.32%.
Then `O=C(NCc1ccc2c(c1)CCN2C(=O)c1ccc(F)cc1)c1c(F)cccc1F`, with inactive: -13%; and `COc1cccc(-c2noc(-c3cc4ccccc4oc3=O)n2)c1OC`, with inactive: 7.27%; and `O=C(CCCN1CCC(O)(c2ccc(Cl)cc2)CC1)c1ccc(F)cc1`, with inactive: -1.52%.
Turning to `Cc1ccc(NC(=O)CCN2C(=O)c3ccccc3Sc3ncccc32)cc1`, the activation was inactive: -25.6%.
In the case of `COc1ccc(C)cc1NC(=O)CSc1ncc2c(n1)-c1ccc(Cl)cc1N(Cc1ccccc1)S2(=O)=O` it was inactive: 3.24%; in that of `Nc1nonc1-c1nc2ccccc2n1CC(=O)Nc1cccc(C(F)(F)F)c1`, inactive: 17.2%.
On to `CCOc1ccccc1NC(=O)CSc1cn(CC(=O)N2CCCCCC2)c2ccccc12`, for which the activation was inactive: -10.4%.
With `COc1cc(OC)c(NC(=O)C(CC(C)C)N2Cc3ccccc3C2=O)cc1Cl` (centres undefined), the activation is inactive: -31.4%.
Consider `CC1=C(C(=O)Nc2ccccc2)C(c2ccc(F)cc2)n2nc(SCc3cc(C)ccc3C)nc2N1` (centres undefined), for which the activation is inactive: -1.43%.
For the compound `CCC(C(=O)NCCc1ccc(OC)c(OC)c1)n1nc(C)c2sc3ccccc3c2c1=O` (centres undefined), the activation was inactive: -15%.
On to `Cc1cc(C)cc(-n2ccn3cnnc3c2=O)c1`, for which the activation is inactive: 8.65%.
With `Cc1ccc(OCC(=O)OCc2cc(=O)n3nc(C4CC4)sc3n2)cc1C`, the activation was inactive: -1.22%.
As to `CC(C)(C)C1CCc2c(sc(NC(=O)c3cc(-c4ccc(F)cc4)on3)c2C#N)C1` (centres undefined), the activation was inactive: 3.21%.
For `CCCN(c1ccccc1F)S(=O)(=O)c1cc(-c2cc(C)no2)ccc1C`, the activation is inactive: -27.7%.
For the compound `COc1ccc(C)cc1NC(=O)Cn1c(=O)oc2cc(S(=O)(=O)N3CCCCCC3)ccc21`, the activation is inactive: -6.1%.
For `CCc1ccc2occ(CC(=O)Nc3c(C(=O)c4ccc(F)cc4)oc4ccccc34)c2c1`, the activation is inactive: 3.79%.
In the case of `CSc1cccc(Nc2cc(C(=O)NC3CCCCC3)c3ccccc3n2)c1` it was inactive: -18.9%; in that of `CCCCCCSc1nc(N)c2c3c(sc2n1)CCCC3C` (centres undefined), inactive: -19.3%; in that of `Cn1nc(-c2ccccc2)c(-c2ccccc2)c(C(=O)Nc2ccccc2C(N)=O)c1=O`, inactive: -12.5%.
Consider `Cc1cc(C)cc(N2C(=O)CSC23C(=O)N(CC(N)=O)c2ccccc23)c1` (centres undefined), for which the activation was inactive: -3.78%.
Turning to `CN(C)c1ccc(-c2nc3ccc(Cl)cn3c2Nc2ccc3c(c2)OCCO3)cc1`, the activation is inactive: -12.4%.
